{"source": "PubChem BioAssay AID686978", "about": "(National Center for Advancing Translational Sciences (NCATS), 2013)", "note": "The campaign covered roughly 420,000 compounds. About 64,000 (15%) were called active. Inconclusive means that the source gave no clear call. Such entries were picked first, then a sample of the others. Calls follow the shape of the dose curve; as a rule, active = well fitted inhibition curve with a large enough effect; inconclusive = small, poorly fitted or top-dose-only effect; inactive = flat fitted curve, though single readings scatter. Potencies of inconclusive entries are left out as doubtful fits. % is scaled to controls: 0 for no effect and ±100 for the full control effect; potency is read from the fitted curve at half-maximal effect; tags tell the direction and shape of the fitted curve."}
{"experiment": "qHTS for Inhibitors of human tyrosyl-DNA phosphodiesterase 1 (TDP1): qHTS in cells in absence of CPT; also: nearly all actives have a fitted effect of over 55% in size", "conditions": "DT40 Tdp1-/- hTDP1 cells, no CPT, ATP luminescence, 48 h; activity change, negative = growth inhibition: at 46.2 µM (top of the series) unless noted", "in_short": "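Chicken DT40 Tdp1-/- cells complemented with human TDP1, screened without camptothecin (DMSO vehicle only), 400 cells/well. Compounds pin-transferred, cells incubated at 37 °C for at least 48 hr. Growth read as ATP-dependent luminescence (CellTiter-Glo, 30 min at RT).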"}
{"compound": "Cc1cccc(NC(=O)COc2cccc3c2CCN(Cc2ccccc2)C3=O)c1C", "Potency": "inconclusive [inhibitor, single point]"}
{"compound": "O=S(=O)(Nc1ccc2ccccc2n1)c1ccc2c(c1)CCO2", "Potency": "inconclusive [inhibitor, single point]"}
{"compound": "CC1CN(C(=O)Cn2c(C(F)(F)F)nc3ccccc32)CC(C)O1", "note": "(configuration not stated)", "Potency": "inactive"}
{"compound": "O=C(NN1C(=O)c2ccccc2NC1c1cccnc1)c1ccc([N+](=O)[O-])cc1", "note": "(configuration not stated)", "Potency": "inactive"}
{"compound": "COc1ccc(OCC(=O)N2CCC3(CC2)CC(=O)c2ccccc2O3)cc1", "Potency": "inconclusive [inhibitor, single point]"}
{"compound": "COc1ccc(Oc2nc3c(C)cccn3c(=O)c2/C=C(\\C#N)C(N)=O)cc1", "Potency": "active: 1.84 µM"}
{"compound": "COc1ccc(CC(=O)N2CC(=O)Nc3ccc(F)cc3C2c2ccccc2)cc1", "note": "(configuration not stated)", "Potency": "inconclusive [inhibitor, single point]"}
{"compound": "CCCCN(C(=O)c1ccccc1Br)C(c1ccc(OC)cc1)c1nc2ccccc2[nH]1", "note": "(configuration not stated)", "Potency": "inconclusive [inhibitor, single point]"}
{"compound": "CCN(C(=O)CCS(=O)(=O)c1cc2c(cc1Cl)NC(=O)CO2)c1ccccc1", "Potency": "inactive"}
{"compound": "COc1ccc(CNC(=O)/C=C/c2ccc(OCCCF)cc2)cc1", "Potency": "inconclusive [inhibitor, single point]"}
{"compound": "Cc1cc(Cl)ccc1C(O)c1ncc(-c2cccc(F)c2)[nH]1", "note": "(configuration not stated)", "Potency": "inconclusive [inhibitor, single point]"}
{"compound": "CN(Cc1cccs1)C(=O)c1ccc(Cl)c(S(=O)(=O)N2CCCCCC2)c1", "Potency": "inconclusive [inhibitor, single point]"}
{"compound": "CCN(CC)c1ccc(/C=N/N(c2ccccc2)c2ccccc2)c(O)c1", "Potency": "inconclusive [inhibitor, single point]"}
{"compound": "O=C(O)/C=C/C(=O)Nc1ccc(F)cc1F", "Potency": "inactive"}
{"compound": "O=C(NCc1ccccc1)C(c1ccc(F)cc1)N(Cc1ccc2c(c1)OCO2)C(=O)Cn1nnc(-c2cccs2)n1", "note": "(configuration not stated)", "Potency": "inconclusive [inhibitor, partial curve]"}
{"compound": "N#CCCn1c(=O)c(-c2ccc(F)cc2)nc2cnc(N3CCNCC3)nc21", "Potency": "active: 20.6 µM"}
{"compound": "CC(=O)c1ccc(NC(=O)CCc2nnc3ccc(NCc4ccco4)nn23)cc1", "Potency": "inactive"}
{"compound": "Cc1ccc(O)c(CCc2ccc(O)cc2)n1", "Potency": "inactive"}
{"compound": "COc1cc(Cn2c(=O)oc3ccc(C)cc32)ccc1OC(C)C", "Potency": "inactive"}
{"compound": "Cc1ccc(-n2ncc(C(=O)N3CCc4ccccc4C3)c2NC(=O)c2ccco2)cc1C", "Potency": "inactive"}
{"compound": "CCOc1ccc(-c2nnn(CC(=O)NCc3ccco3)n2)cc1", "Potency": "inactive"}
{"compound": "CCc1ccc(NC(=O)CSc2n[nH]c(=O)n2C2CC2)cc1", "Potency": "inactive"}
{"compound": "Cc1cc(C)cc(C(=O)NC(CC(N)=O)c2ccc(NC3CCCCCC3)c([N+](=O)[O-])c2)c1", "note": "(configuration not stated)", "Potency": "inconclusive [inhibitor, single point]"}
{"compound": "COc1cc(NC2c3ccccc3C(=O)N2Cc2ccccc2Cl)cc(OC)c1", "note": "(configuration not stated)", "Potency": "inconclusive [inhibitor, single point]"}
{"compound": "CC1(C)Cc2cccc(OCC(=O)NCc3cccs3)c2O1", "Potency": "inactive"}
{"compound": "CCSc1nnc(NC(=O)CSc2nc(CC)nc3c2c(=O)n(C)c(=O)n3C)s1", "Potency": "active: 14.6 µM"}
{"compound": "COc1cc(CNCc2ccccn2)ccc1OCc1ccc(Cl)cc1", "Potency": "inconclusive [inhibitor, single point]"}
{"compound": "COc1ccccc1CNC(=O)c1ccc(N2CCCC2)c(NC(=O)NCc2ccc(C)cc2)c1", "Potency": "inconclusive [inhibitor, single point]"}
{"compound": "Cc1ccccc1CNC(=O)Cn1c(=O)c2cccn2c2cccnc21", "Potency": "inconclusive [inhibitor, single point]"}
{"compound": "Cc1c(C(=O)c2ccc(Cl)cc2Cl)cnc2cc3c(cc12)OCO3", "Potency": "inconclusive [inhibitor, single point]"}
{"compound": "CC(=O)c1sc(-c2ccc(Cl)cc2)nc1C", "Potency": "inactive"}
{"compound": "CCOC(=O)c1c(-c2ccc(OC)cc2)csc1/N=C/C1=C(O)CCCC1=O", "Potency": "inactive"}
{"compound": "CC(NC(=O)C12CC3CC(CC(C3)C1)C2)C(=O)N/N=C/C1=C(N2CCOCC2)C(=C\\c2ccccc2)/CC1", "note": "(configuration not stated)", "Potency": "active: 20.6 µM"}
{"compound": "COCCNC(=O)C(=O)NCCN1CCNCC1", "Potency": "inactive"}
{"compound": "CC(C)CCn1c(=O)c(C(=O)N/N=C/c2cccc(F)c2)c(O)c2ccccc21", "Potency": "active: 0.651 µM"}
{"compound": "COc1ccc(C2=NC(c3ccccc3)=Nc3ccc(C)cc3N2)cc1", "Potency": "active: 20.6 µM"}
{"compound": "Cc1ccc(NC(=O)COc2cccc(C)c2C)cc1S(=O)(=O)N1CCCCCC1", "Potency": "active: 18.4 µM"}
{"compound": "COc1ccc(-c2ccc3c(c2)C2CC3CCN2Cc2ccc(OC(F)(F)F)cc2)cc1", "note": "(configuration not stated)", "Potency": "inconclusive [inhibitor, single point]"}
{"compound": "COc1ccc(Cc2nc3c([nH]2)c(=O)n(C)c(=O)n3C)cc1OC", "Potency": "inconclusive [inhibitor, partial curve]"}
{"compound": "COc1ccc(C(=O)Nc2ccc(Cl)cc2C(=O)N2CCCC(C)C2)cc1OC", "note": "(configuration not stated)", "Potency": "inconclusive [inhibitor, partial curve]"}
{"compound": "O=C(/C=C/c1ccccc1[N+](=O)[O-])Nc1cccnc1", "activity change, negative = growth inhibition": "inconclusive: -22.4% [inhibitor]"}
{"compound": "COC(=O)c1ccccc1NC(=O)c1ccc(CN2CC(=O)N3CCCCC3C2=O)cc1", "note": "(configuration not stated)", "Potency": "inconclusive [inhibitor, single point]"}
{"compound": "CCCCNC(=S)Nc1ccc(C(F)(F)F)cc1", "Potency": "inconclusive [inhibitor, single point]"}
{"compound": "Cn1ccc2c(-c3cccc(C=O)c3F)cc3c(c21)C1CCC3C1", "note": "(configuration not stated)", "Potency": "inconclusive [inhibitor, single point]"}
{"compound": "Cn1nnc2cc(NC(=O)Nc3cccc(C(F)(F)F)c3)ccc21", "Potency": "inactive"}
{"compound": "COc1cc(C(=O)NC2CCCCCCC2)cc(OC)c1OC", "Potency": "inconclusive [inhibitor, single point]"}
{"compound": "Cc1ccc(NC(=O)c2ccc(S(=O)(=O)NCc3cccnc3)cc2)cc1C", "Potency": "inconclusive [inhibitor, partial curve]"}
